The record followed here is publication PMC7819943, “Rice protein-binding microarrays: a tool to detect cis-acting elements near promoter regions in rice”.

This is one part of the list.

This test addresses T1, OsWOX13 (Oryza sativa, UniProt Q5QMM3 1-267).
T1 sequence: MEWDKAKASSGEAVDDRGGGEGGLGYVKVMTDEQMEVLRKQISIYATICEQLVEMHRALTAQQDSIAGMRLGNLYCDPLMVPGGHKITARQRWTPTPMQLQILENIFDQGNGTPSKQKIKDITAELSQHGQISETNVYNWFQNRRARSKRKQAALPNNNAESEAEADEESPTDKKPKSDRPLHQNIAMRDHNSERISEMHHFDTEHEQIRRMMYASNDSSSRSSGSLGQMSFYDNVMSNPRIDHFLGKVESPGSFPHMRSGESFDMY
As to the kind of experiment: protein-binding microarray (RPBM); PBS, 2% BSA, 51.3 ng/ul salmon testes DNA, 50 uM zinc acetate, 200 nM TF, 25 C, 1 h; high values mean tight binding. Particulars: protein: recombinant; tags: N-terminal polyhistidine and DsRed monomer fusion (pET32a); label: CyDye5-dUTP incorporated in the synthesized complementary strand; 3' TTTTT single-stranded linker to array surface; dsDNA, one strand shown. In a few lines:
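Polyhistidine-tagged DsRed fusions of transcription factors, joined at the N-terminus, were expressed in E. coli BL21-CodonPlus and isolated on Ni–NTA. They were incubated at 200 nM for 1 h at 25 °C on a custom Agilent array, double-stranded and BSA-blocked, in PBS with 2% BSA, salmon testes DNA and 50 µM zinc acetate. The binding signal is per-feature fluorescence intensity (arbitrary units) read on an Axon 4000B scanner after washing.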
Take “TTGATGATGTAACGTACGGTTGATTAATAATAAATTAGGTCGGAGTCACCTAGTGCAG”: the binding signal was 18400 fluorescence intensity (a.u.).
With “CTTCAATGATTTTGTCGTCATCACCAATGCGGATCATATGCGGAGTCACCTAGTGCAG” the figure was 19000 fluorescence intensity (a.u.).
With “GGTGATTTGTTATAAAATAATGTTTCGTTCACTGCAACATCGGAGTCACCTAGTGCAG” the figure was 31000 fluorescence intensity (a.u.); with “GCCAAAATAGCCATGATTAGCACTAACCCAGTACTGAAACCGGAGTCACCTAGTGCAG”, 9890 fluorescence intensity (a.u.); with “ATCGATGTTGCTTGATGGACAGATGTGTTCATCAGTAGAGCGGAGTCACCTAGTGCAG”, 3830 fluorescence intensity (a.u.).
For the sequence “ATTATAAATTTACCACTGTCTTGAATCGTTATTATAAAACCGGAGTCACCTAGTGCAG”, the binding signal was 7340 fluorescence intensity (a.u.).
On to “GTTGATGGGATTAAATCCCGTTACATCGCCGAATGATAAGCGGAGTCACCTAGTGCAG”, for which the binding signal was 21100 fluorescence intensity (a.u.).
On to “GAGCATGATTACTTAAATATTAGCTAATTCTTTCTTTAAACGGAGTCACCTAGTGCAG”, for which the binding signal is 15500 fluorescence intensity (a.u.).
As to “TCCTGATTGCTTATGTAATTTGGAAGGAACAAAATAATAACGGAGTCACCTAGTGCAG”, the binding signal is 9930 fluorescence intensity (a.u.).
With “CTTAAAATCAACTTTTAAATTAAATTTTAAAATTCAAAGTCGGAGTCACCTAGTGCAG” the figure was 7070 fluorescence intensity (a.u.); with “GCTAGTAATTGTCTATACTATTAAACTTGCTCTAAGGGCACGGAGTCACCTAGTGCAG”, 14000 fluorescence intensity (a.u.).
With “ATGATTGAGCCGGGGTCTACGGTACGATTCCGGTACCAACCGGAGTCACCTAGTGCAG” the figure was 29400 fluorescence intensity (a.u.); with “CGATAACTATTTTCAGTTTATTTTCAGTTTATTTTGTTCTCGGAGTCACCTAGTGCAG”, 7650 fluorescence intensity (a.u.).
Under “TGTTAATTTCTCCGTCTCGAAATAAGTAAAGTTTTGTGTTCGGAGTCACCTAGTGCAG” stands 28400 fluorescence intensity (a.u.).
For “TAGTTTAATTTTGAGTAAATTTTAGGGTGTTTGGTTGTAGCGGAGTCACCTAGTGCAG”, the binding signal is 9810 fluorescence intensity (a.u.).
With “TTCTGACAAAGTAATCAGTTGGACATTTGGAACTGATTACCGGAGTCACCTAGTGCAG”, the binding signal is 8300 fluorescence intensity (a.u.).
On to “ATTAATTACGCGTCACTTGCCCCATAAACGACACCGTCCACGGAGTCACCTAGTGCAG”, for which the binding signal is 23400 fluorescence intensity (a.u.).
Under “CTCTTAATTCCGCACATTAAAATATGTAACCACTTCTATACGGAGTCACCTAGTGCAG” stands 3590 fluorescence intensity (a.u.); under “TTAAAACATAATTACATCACGATTGCACGATATTTACATCCGGAGTCACCTAGTGCAG”, 11100 fluorescence intensity (a.u.); under “AATTTTGATTAATCTCGTATTGGGTTCTTATATGGAAACTCGGAGTCACCTAGTGCAG”, 23800 fluorescence intensity (a.u.).
Under “CAGTAACAATTTAATCACTGTTATATTATTAGAATGAAATCGGAGTCACCTAGTGCAG” stands 11200 fluorescence intensity (a.u.); under “GGGACTCATTTAGATTGCAGACGGACCATAACTAGTCGTGCGGAGTCACCTAGTGCAG”, 3730 fluorescence intensity (a.u.); under “AAGATTAGTACTAACCAATAACCATAGCCCATAGAGCTCGCGGAGTCACCTAGTGCAG”, 5340 fluorescence intensity (a.u.).
As to “AGAATAATTAACCGTAAATGCGAGCAATTATGTCAAGTCTCGGAGTCACCTAGTGCAG”, the binding signal was 20800 fluorescence intensity (a.u.).
With “GGTGGAGGCGGGCGCGGTGGAGGCGGGGAGGAAGGGGAGCCGGAGTCACCTAGTGCAG” the figure was 6860 fluorescence intensity (a.u.).
With “CCTGACAGGAGAATTCCCACAATGTTCAGATAACTACAAACGGAGTCACCTAGTGCAG” the figure was 17900 fluorescence intensity (a.u.); with “GTTAATTAGAAGTCTTAAGAGATGAAGAAGGGTGGCAATACGGAGTCACCTAGTGCAG”, 21400 fluorescence intensity (a.u.).
Regarding “TTAACTAAATTTATAGTAAAATTTACCAATATCTAAAATACGGAGTCACCTAGTGCAG”, the binding signal was 20300 fluorescence intensity (a.u.).
With “TTACTCCTAATCATCATCAAACGAAGCATCGTTTCCTGTGCGGAGTCACCTAGTGCAG” the figure was 4620 fluorescence intensity (a.u.); with “AGTGGCAATTTAATCAGTAAACTACATGTCTATAGCTCGCCGGAGTCACCTAGTGCAG”, 10200 fluorescence intensity (a.u.).
With “ACAAAATTTGACGACGAAATCTCTTCGTCACGGGGAGTCGCGGAGTCACCTAGTGCAG” the figure was 10900 fluorescence intensity (a.u.); with “CATGCTCACAATTTAATTAACAACAACCGAGGCACTCAAGCGGAGTCACCTAGTGCAG”, 6310 fluorescence intensity (a.u.).
In the case of “GAAAATAATTGAAACCCTAGAATTTGAGGGGAATATCCCACGGAGTCACCTAGTGCAG”, the binding signal was 22800 fluorescence intensity (a.u.).
With “TATAATTGTTACTGTTAATTGAGGTGGGAAATACCAGGTGCGGAGTCACCTAGTGCAG” the figure was 53500 fluorescence intensity (a.u.); with “TGAGGATGTATGATTTGTTCACAATTTCAAAATGAGGGTACGGAGTCACCTAGTGCAG”, 3170 fluorescence intensity (a.u.).
Regarding “ACATAACAAAGCCTGATTGGCACAGCAGGGAGGCTGCAACCGGAGTCACCTAGTGCAG”, the binding signal is 27400 fluorescence intensity (a.u.).
Consider “ACAATGATGTCAATTTCTTCTTAGGTAAGTCGTGTCGGCTCGGAGTCACCTAGTGCAG”, for which the binding signal is 13300 fluorescence intensity (a.u.).
In the case of “ATGATGATATCTTGATGACTTGATGTGTTATATATTGTTTCGGAGTCACCTAGTGCAG”, the binding signal is 12100 fluorescence intensity (a.u.).
With “TGTAGTTTGGTTAATTACACAGGCATGAACGAATCCGTTCCGGAGTCACCTAGTGCAG” the figure was 3440 fluorescence intensity (a.u.); with “TAATGATTTACAACACTATGACCACATGGTTAACCTCGTGCGGAGTCACCTAGTGCAG”, 25600 fluorescence intensity (a.u.); with “AGCCAATCAGAATCCAAATAAAACATTCTTGCAGCAGGCGCGGAGTCACCTAGTGCAG”, 15900 fluorescence intensity (a.u.).
As to “CGACAATTGATATAGCCCATAATAAAATAATTTGAACATTCGGAGTCACCTAGTGCAG”, the binding signal was 8020 fluorescence intensity (a.u.).
